For this assay, the target named is hepatitis C virus RNA dependent polymerase (NS5B) (Hepacivirus hominis (Hepatitis C virus), UniProt P26663). Nature of the assay: Inhibition of NS5B RNA dependent RNA polymerase activity (SPA, UMP-[5,6 3H] incorporation).
[1] abbreviates: IC50 μM, first compound table (printed title TABLE 10; Table 1).

Read-outs that look alike come from different tables or passages of the source.

Consider `O=C(O)COc1ccccc1CN[C@H]1CC[C@H](NC(=O)c2ccc3c(c2)nc(-c2ccoc2)n3C2CCCCC2)CC1` [Entry 1264], for which the IC50 under setting [1] was in the range of 5 to 10 µM.
For the setting “IC50 μM, Table 2”, `O=C(N[C@H](C(=O)O)c1ccccc1)c1ccc2c(c1)nc(-c1ccccn1)n2C1CCCCC1` [Entry 2076] returned an IC50 of 5 to 10 µM.
In turn, `CS(=O)(=O)Nc1ccc2[nH]cc(C[C@H](NC(=O)c3ccc4c(c3)nc(-c3ccoc3)n4C3CCCCC3)C(N)=O)c2c1` [Entry 13006, 1-Cyclohexyl-2-furan-3-yl-1H-benzimidazole-5-carboxylic Acid [(S)-1-Carbamoyl-2-(5-methanesulfonylamino-1H-indol-3-yl)-ethyl]-amide] came in with an IC50 (IC50, Table 13) of less than 1 µM.
As to `O=C(O)COc1ccc2[nH]cc(C[C@H](NC(=O)c3ccc4c(c3)nc(-c3ccoc3)n4C3CCCC3)C(=O)O)c2c1` [Entry 22007], the IC50 (IC50 μM, Table 22) is less than 1 µM.
For `O=C(O)c1ccc2c(c1)nc(-c1ncc[nH]1)n2C1CCCCC1` [Entry 7004], the IC50 (IC50 μM, Table 7) is 10 to 25 µM.
`O=C(N[C@@H](Cc1c[nH]c2ccc(O)cc12)c1cscn1)c1ccc2c(c1)nc(-c1ccccc1)n2C1CCCCC1` [Entry 15002] came in with an IC50 (IC50, Table 15) of less than 1 µM.
Under setting [1], `O=C(O)/C=C/c1ccc(CN2CCC(NC(=O)c3ccc4c(c3)nc(-c3ccoc3)n4C3CCCCC3)CC2)cc1` [Entry 1281] showed an IC50 of 10 to 25 µM.
As to `COc1ccc(C(NC(=O)c2ccc3c(c2)nc(-c2ccc(OC(C)C)cc2)n3C2CCCCC2)C(=O)O)cc1OC` (stereo not drawn) [Entry 2069], where the note is “IC50 μM, Table 2”, the IC50 fell in the range of 1 to 5 µM.
The compound `[N-]=[N+]=Nc1ccc(C(=O)NCCNC(=O)COc2ccc(-c3nc4cc(C(=O)N[C@@H](Cc5c[nH]c6ccc(OCC(=O)O)cc56)C(=O)O)ccc4n3C3CCCCC3)cc2)cc1` [Entry 12025, (S)-2-{[1-(2-{4-[(2-{[1-(4-Azido-phenyl)-methanoyl]-amino}-ethylcarbamoyl)-methoxy]-phenyl}-1-cyclohexyl-1H-benzimidazol-5-yl)-methanoyl]-amino}-3-(5-carboxymethoxy-1H-indol-3-yl)-propionic Acid] displayed an IC50 (IC50, Table 12) of less than 1 µM.
With `CCC(NC(=O)c1ccc2c(c1)nc(-c1ccccn1)n2C1CCCCC1)c1ccc(OC)c(OC)c1` (stereo not drawn) [Entry 2050], under “IC50 μM, Table 2”, the IC50 is 5 to 10 µM.
Compound `O=C(N[C@@H](Cc1c[nH]c2ccc(O)cc12)C(=O)O)c1ccc2c(c1)nc(-c1cccs1)n2C1CCCCC1` [Entry 12012] showed an IC50 (IC50, Table 12) of less than 1 µM.
`CN(C)CCCNC(=O)COc1ccc(-c2nc3cc(C(=O)NCc4ccc(S(C)(=O)=O)cc4)ccc3n2C2CCCCC2)cc1` [Entry 2039] gave an IC50 (IC50 μM, Table 2) of 10 to 25 µM.
Under “IC50, Table 16”, `Nc1nc([C@H](Cc2ccc(O)cc2)NC(=O)c2ccc3c(c2)nc(-c2ccoc2)n3C2CCCCC2)cs1` [Entry 16060, 1-Cyclohexyl-2-furan-3-yl-1H-benzimidazole-5-carboxylic Acid [(S)-1-(2-Amino-thiazol-4-yl)-2-(4-hydroxy-phenyl)-ethyl]-amide] gave an IC50 of less than 1 µM.
As for `O=C(O)COc1cccc(CC(NC(=O)c2ccc3c(c2)nc(-c2ccoc2)n3C2CCCCC2)C(=O)O)c1` (stereo not drawn) [Entry 16020], for the setting “IC50, Table 16”, the IC50 is less than 1 µM.
Under setting [1], `O=C(N[C@H](CO)Cc1ccc(O)cc1)c1ccc2c(c1)nc(-c1ccoc1)n2C1CCCCC1` [Entry 1021] came in with an IC50 of 1 to 5 µM.
The compound `COc1ccc(C(NC(=O)c2ccc3c(c2)nc(C=C(C)C)n3C2CCCCC2)C(=O)O)cc1OC` (stereo not drawn) [Entry 2037] came in with a concentration for half-maximal inhibition (IC50) (IC50 μM, Table 2) of 10 to 25 µM.
On to `Cn1nnc(-c2ccc(C[C@H](NC(=O)c3ccc4c(c3)nc(-c3ccoc3)n4C3CCCCC3)C(=O)O)cc2)n1` [Entry 16036], for which the IC50 (IC50, Table 16) is less than 1 µM.
For the setting “IC50, Table 12”, `O=C(N[C@@H](Cc1c[nH]c2ccc(O)cc12)C(=O)O)c1ccc2c(c1)nc(-c1cccc(OCCO)c1)n2C1CCCCC1` [Entry 12006] yielded an IC50 of less than 1 µM.
`O=C(O)COc1ccccc1CN1CCCC(NC(=O)c2ccc3c(c2)nc(-c2ccoc2)n3C2CCCCC2)C1` (stereo not drawn) [Entry 1265] returned an IC50 under setting [1] of 1 to 5 µM.
The same measure, in the same setting: under `O=C(O)c1ccc(CN2CCC(CNC(=O)c3ccc4c(c3)nc(-c3ccoc3)n4C3CCCCC3)CC2)cc1` [Entry 1273] stands 10 to 25 µM; under `O=C(O)COc1ccccc1CN1CCC(NC(=O)c2ccc3c(c2)nc(-c2ccoc2)n3C2CCCCC2)CC1` [Entry 1266], 5 to 10 µM.
Turning to `O=C(N[C@H](Cc1c[nH]c2ccccc12)C(=O)O)c1ccc2c(c1)nc(-c1ccoc1)n2C1CCCCC1` [Entry 1233], the IC50 lay in the range of 5 to 10 µM.
Under setting [1], `O=C(N[C@@H](Cc1ccc(O)cc1)C(=O)NCc1ccccn1)c1ccc2c(c1)nc(-c1ccoc1)n2C1CCCCC1` [Entry 1114] gave an IC50 of 1 to 5 µM.
With `C[C@@H](NC(=O)c1ccc2c(c1)nc(-c1ccc(OCC(=O)NCCCN(C)C)cc1)n2C1CCCCC1)c1ccc2ccccc2c1` [Entry 2071], the IC50 (IC50 μM, Table 2) fell in the range of 1 to 5 µM.
As to `O=C(O)C(=O)Nc1ccc2[nH]cc(C[C@H](NC(=O)c3ccc4c(c3)nc(-c3ccoc3)n4C3CCCCC3)C(=O)O)c2c1` [Entry 11024, (S)-3-{5-[(1-Carboxy-methanoyl)-amino]-1H-indol-3-yl}-2-{[1-(1-cyclohexyl-2-furan-3-yl-1H-benzimidazol-5-yl)-methanoyl]-amino}-propionic Acid], the IC50 (IC50, Table 11) is less than 1 µM.
In turn, `O=C(O)COc1ccc(CC(NC(=O)c2ccc3c(c2)nc(-c2ccoc2)n3C2CCCCC2)C(F)(F)F)cc1` (racemic) [Entry 1123, [4-(2-{[1-(1-Cyclohexyl-2-furan-3-yl-1H-benzimidazol-5-yl)-methanoyl]-amino}-3,3,3-trifluoro-propyl)-phenoxy]-acetic Acid] yielded an IC50 under setting [1] of 1 to 5 µM.
With `C[C@@H](Cc1ccc(O)cc1)NC(=O)c1ccc2c(c1)nc(-c1ccoc1)n2C1CCCCC1` [Entry 1072], the IC50 under setting [1] lay in the range of 1 to 5 µM.
The compound `O=C(O)c1ccc(CN[C@H]2CC[C@H](NC(=O)c3ccc4c(c3)nc(-c3ccoc3)n4C3CCCCC3)CC2)cc1` [Entry 1274] registered an IC50 under setting [1] of 10 to 25 µM.
In the case of `CC(=O)Nc1ccc(C[C@H](NC(=O)c2ccc3c(c2)nc(-c2ccoc2)n3C2CCCCC2)C(=O)O)cc1` [Entry 16031, (S)-3-(4-Acetylaminophenyl)-2-{[1-(1-Cyclohexyl-2-furan-3-yl-1H-benzoimidazol-5-yl)-methanoyl]-amino}-propionic Acid], under “IC50, Table 16”, the IC50 was less than 1 µM.
`O=C(N[C@@H](Cc1ccccc1)C(=O)O)c1ccc2c(c1)nc(-c1ccoc1)n2C1CCCCC1` [Entry 1015]: under setting [1], the IC50 was in the range of 5 to 10 µM.
`CC(CC(=O)Nc1cccc(/C=C/C(=O)O)c1)NC(=O)c1ccc2c(c1)nc(-c1ccoc1)n2C1CCCCC1` (stereo not drawn) [Entry 1160] came in with an IC50 under setting [1] of 1 to 5 µM.
`COc1ccc(CNC(=O)c2ccc3c(c2)nc(-c2ccccn2)n3[C@H]2CCCC[C@@H]2O)cc1OC` [Entry 8001] displayed an IC50 (IC50 μM, Table 8) of 10 to 25 µM.
For the compound `COc1ccc(C(NC(=O)c2ccc3c(c2)nc(-c2cc4ccccc4o2)n3C2CCCCC2)C(=O)O)cc1OC` (stereo not drawn) [Entry 2038], the IC50 (IC50 μM, Table 2) is 10 to 25 µM.
In turn, `O=C(O)c1ccc2c(c1)nc(-c1ccccn1)n2C1CCCCC1` [Entry 7021, 1-Cyclohexyl-2-pyridin-2-yl-1H-benzoimidazole-5-carboxylic Acid] displayed an IC50 (IC50 μM, Table 7) of 1 to 5 µM.
Turning to `O=C(NCCc1ccc(O)cc1)c1ccc2c(c1)nc(-c1ccoc1)n2C1CCCCC1` [Entry 1025], under setting [1], the IC50 was 5 to 10 µM.
As to `O=C(NC(Cc1ccc(O)c(C(=O)O)c1)C(=O)O)c1ccc2c(c1)nc(-c1ccoc1)n2C1CCCCC1` (racemic) [Entry 16058, 5-(2-Carboxy-2-{[1-(1-cyclohexyl-2-furan-3-yl-1H-benzimidazol-5-yl)-methanoyl]-amino}-ethyl)-2-hydroxy-benzoic Acid], the IC50 (IC50, Table 16) is less than 1 µM.
For `Cc1nnsc1-c1nc2cc(C(=O)N[C@@H](Cc3c[nH]c4ccc(O)cc34)C(=O)O)ccc2n1C1CCCCC1` [Entry 2141], the IC50 (IC50 μM, Table 2) is less than 1 µM.
The same measure, in the same setting: the figure for `COC(=O)C(NC(=O)c1ccc2c(c1)nc(-c1ccccn1)n2C1CCCCC1)c1ccc(OC)c(OC)c1` (stereo not drawn) [Entry 2047] is 5 to 10 µM.
In turn, `CN(C(=O)c1ccc2c(c1)nc(-c1ccoc1)n2C1CCCCC1)[C@@H](Cc1c[nH]c2ccccc12)C(=O)O` [Entry 10063] displayed an IC50 (IC50 μM, Table 10) of 1 to 5 µM.
`COC(=O)[C@H](Cc1c[nH]c2ccc(OCC(=O)O)cc12)NC(=O)c1ccc2c(c1)nc(-c1ccoc1)n2C1CCCC1` [Entry 22004] yielded an IC50 (IC50 μM, Table 22) of less than 1 µM.
Compound `O=C(O)c1ccc2c(c1)nc(-c1ccc(OCC(=O)N3CCOCC3)cc1)n2C1CCCCC1` [Entry 7017] showed an IC50 (IC50 μM, Table 7) of 5 to 10 µM.
Consider `CC(C)c1ccc(C(NC(=O)c2ccc3c(c2)nc(-c2ccoc2)n3C2CCCCC2)C(=O)O)cc1` (stereo not drawn) [Entry 1001], for which the IC50 under setting [1] fell in the range of 10 to 25 µM.
Consider `O=C(O)c1ccc2c(c1)nc(-c1cccs1)n2C1CCCCC1` [Entry 7026], for which, under “IC50 μM, Table 7”, the IC50 lay in the range of 1 to 5 µM.
Take `O=C(O)COc1ccc2[nH]cc(C[C@H](NC(=O)c3ccc4c(c3)nc(-c3ccc(OCC(=O)NCCNC(=S)Nc5ccc(-c6c7ccc(=O)cc-7oc7cc(O)ccc67)c(C(=O)O)c5)cc3)n4C3CCCCC3)C(=O)O)c2c1` [Entry 12022, 5-(3-{2-[2-(4-{5-[(S)-1-Carboxy-2-(5-carboxymethoxy-1H-indol-3-yl)-ethylcarbamoyl]-1-cyclohexyl-1H-benzimidazol-2-yl}-phenoxy)-ethanoylamino]-ethyl}-thioureido)-2-(6-hydroxy-3-oxo-3H-xanthen-9-yl)-benzoic Acid]: where the note is “IC50, Table 12”, the IC50 is less than 1 µM.
Under setting [1], `O=C(O)COc1ccc(CN2CCC(NC(=O)c3ccc4c(c3)nc(-c3ccoc3)n4C3CCCCC3)CC2)cc1` [Entry 1286] registered a half-inhibitory concentration (IC50) of 10 to 25 µM.
As to `Cc1cc(CC(NC(=O)c2ccc3c(c2)nc(-c2ccoc2)n3C2CCCCC2)C(=O)O)cc(Cl)c1O` (racemic) [Entry 1152, 3-(3-Chloro-4-hydroxy-5-methyl-phenyl)-2-{[1-(1-cyclohexyl-2-furan-3-yl-1H-benzimidazol-5-yl)-methanoyl]-amino}-propionic Acid], under setting [1], the IC50 was in the range of 1 to 5 µM.
`O=C(N[C@@H](Cc1c[nH]c2ccc(O)cc12)C(=O)O)c1ccc2c(c1)nc(-c1ccoc1)n2[C@@H]1CCCC[C@H]1OCc1ccccc1` [Entry 22018] registered an IC50 (IC50 μM, Table 22) of less than 1 µM.
Regarding `O=C(NC1CCN(C(=O)Nc2ccccc2C(=O)O)C1)c1ccc2c(c1)nc(-c1ccoc1)n2C1CCCCC1` (stereo not drawn) [Entry 1196], the IC50 under setting [1] lay in the range of 1 to 5 µM.

Source of the values: patent US6448281B1 (Boehringer Ingelheim (Canada) Ltd., priority 2000, dated 2002).
